Some of the results follow. Values were computed here from the reads of four pooled replicates and scatter widely.
Target: T1, Pho4 (S. cerevisiae) (UniProt P07270)
T1 sequence: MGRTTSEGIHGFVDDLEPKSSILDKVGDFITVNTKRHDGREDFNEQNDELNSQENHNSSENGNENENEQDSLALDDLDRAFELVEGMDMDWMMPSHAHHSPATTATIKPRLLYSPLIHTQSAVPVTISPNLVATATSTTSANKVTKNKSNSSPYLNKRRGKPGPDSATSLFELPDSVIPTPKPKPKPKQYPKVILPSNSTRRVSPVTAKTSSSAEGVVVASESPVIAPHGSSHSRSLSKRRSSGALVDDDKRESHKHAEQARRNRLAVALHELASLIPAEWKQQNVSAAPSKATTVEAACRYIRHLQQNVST
Assay: relative binding free energy (BET-seq); higher = weaker binding
Settings: reference: library average

Sequence	relative binding free energy
GTGATCACGTGATTGG	0.44 kcal/mol
GATGGCACGTGGAGTA	-0.1 kcal/mol
CTTGACACGTGGTTTT	0.01 kcal/mol
TATGCCACGTGTGATT	0.02 kcal/mol
CTTGACACGTGTGTAT	0.18 kcal/mol
AACGTCACGTGGGGTT	-0.04 kcal/mol
ATTGCCACGTGGTACG	-0.01 kcal/mol
GGTGTCACGTGAAATA	0.45 kcal/mol
TGTGACACGTGGTCGA	-0.13 kcal/mol
TTAGGCACGTGGCGGG	-0.13 kcal/mol
GACTACACGTGGGTTG	-0.04 kcal/mol
CTAGGCACGTGGAGTG	-0.2 kcal/mol
TTCTTCACGTGGTGGG	0.36 kcal/mol
TGTAGCACGTGCATTA	-0.08 kcal/mol
TTGTGCACGTGGAGCT	-0.01 kcal/mol
GTGTCCACGTGAGTGG	0.2 kcal/mol
TATTACACGTGAGGCG	0.3 kcal/mol
GGGAGCACGTGGATAT	-0.14 kcal/mol
TAAAGCACGTGTTGCG	-0.01 kcal/mol
CGTTACACGTGGGTGG	-0.07 kcal/mol
CGAGGCACGTGGCGAG	-0.14 kcal/mol
AGCTTCACGTGAGTTT	0.22 kcal/mol
GGGGGCACGTGTATTG	-0.08 kcal/mol
ATTAGCACGTGGGGAT	-0.24 kcal/mol
TGTACCACGTGTTGGA	-0.04 kcal/mol
GTGCTCACGTGTGCAG	0.33 kcal/mol

Sequence	relative binding free energy
GATGACACGTGGGTTT	0.04 kcal/mol
CGTCGCACGTGTTCGT	0.1 kcal/mol
GGAACCACGTGGGAAG	0.08 kcal/mol
TATGTCACGTGTATAG	0.07 kcal/mol
AGATGCACGTGATCGG	-0.04 kcal/mol
CTTTGCACGTGTTGAA	0.13 kcal/mol
ATGAGCACGTGATTTT	0.04 kcal/mol
TCGGGCACGTGAACTG	0.27 kcal/mol
GGGGTCACGTGCTGCG	0.05 kcal/mol
TATGTCACGTGCTATG	-0.03 kcal/mol
AGTGGCACGTGAGTGT	0.11 kcal/mol
ATAGCCACGTGTTGGG	-0.21 kcal/mol
GTTGACACGTGTGTCG	0.13 kcal/mol
GAGGGCACGTGCGGCA	-0.18 kcal/mol
AGGACCACGTGTGTGT	-0.05 kcal/mol
TTTTTCACGTGTCTGC	0.28 kcal/mol
TATATCACGTGGAATA	0.22 kcal/mol
TGTCTCACGTGATAAG	0.42 kcal/mol
AGCGTCACGTGGTGTG	-0.06 kcal/mol
ATTTGCACGTGTATTT	0.08 kcal/mol
TTTTGCACGTGAAGGC	0.38 kcal/mol
GAAGCCACGTGGGTTG	-0.18 kcal/mol
TCGTGCACGTGTCAGT	0.04 kcal/mol
GGTGCCACGTGGTATG	-0.15 kcal/mol
TTTAACACGTGCCGTT	0.11 kcal/mol
TTTATCACGTGTCTGA	0.18 kcal/mol

Sequence	relative binding free energy
CCGGGCACGTGTGGTT	-0.07 kcal/mol
ACATGCACGTGTGTAA	0.09 kcal/mol
TGTTGCACGTGTCACG	0 kcal/mol
TTTAGCACGTGAGCAT	0.24 kcal/mol
GTTAACACGTGGATGA	0.06 kcal/mol
GGGGTCACGTGGACTG	0.05 kcal/mol
TGAGTCACGTGTGTCT	0.12 kcal/mol
TATAGCACGTGTCTTA	-0.04 kcal/mol
GGGCGCACGTGAAGTC	0.32 kcal/mol
GATAGCACGTGTTAGC	0.17 kcal/mol
TTTATCACGTGGGTCT	0.08 kcal/mol
TAGTGCACGTGTGTTT	0.1 kcal/mol
TGGGACACGTGAATTT	0.38 kcal/mol
TGGCTCACGTGTGGGA	0.11 kcal/mol
ACAGGCACGTGTTAGG	-0.17 kcal/mol
TGTGTCACGTGTACGT	0.06 kcal/mol
TCTTGCACGTGGGGCG	-0.1 kcal/mol
AGTGACACGTGGCGGA	-0.1 kcal/mol
CAGGACACGTGTAAGG	0.27 kcal/mol
GGTCCCACGTGTGGTG	-0.02 kcal/mol
GTGAGCACGTGGAAAG	0.16 kcal/mol
TAGGGCACGTGGTCTG	-0.25 kcal/mol
TTGGGCACGTGGTGTA	-0.21 kcal/mol
ATGATCACGTGGTATG	0.12 kcal/mol
TGATACACGTGTGGAA	0.11 kcal/mol
TTAGACACGTGCTTGG	-0.01 kcal/mol

Sequence	relative binding free energy
GTGTACACGTGGGCGC	-0.22 kcal/mol
TAGAACACGTGTTAGG	0.06 kcal/mol
TTAGCCACGTGTTAGT	-0.11 kcal/mol
TACGACACGTGAGTGG	0.18 kcal/mol
TACGTCACGTGTGTTA	0.06 kcal/mol
TAGCTCACGTGTAAGT	0.3 kcal/mol
GGGGGCACGTGTCGTT	0.11 kcal/mol
AGTAACACGTGGTGCG	-0.08 kcal/mol
GGGGTCACGTGTATAA	0.12 kcal/mol
TGCTCCACGTGAGGTG	0.21 kcal/mol
ATGCGCACGTGATTGT	-0.04 kcal/mol
GGTAACACGTGTGATG	0.03 kcal/mol
GTGATCACGTGTCTTG	0.19 kcal/mol
TTTCGCACGTGTTATG	-0.03 kcal/mol
TGGTTCACGTGTGATT	0.32 kcal/mol
CGATTCACGTGATGGG	0.4 kcal/mol
TTCCTCACGTGTTGGG	0.12 kcal/mol
ATTAGCACGTGTGTTG	0.06 kcal/mol
GGCGTCACGTGGCTGG	-0.01 kcal/mol
TTTGACACGTGGCGTT	-0.05 kcal/mol
TTTACCACGTGGTGTA	-0.25 kcal/mol
ATAAGCACGTGGGAAG	-0.09 kcal/mol
ACATGCACGTGTTGAT	-0.05 kcal/mol
ATGCTCACGTGGTCGG	0.06 kcal/mol
ATGGCCACGTGATTTT	0.19 kcal/mol
ATTAACACGTGATGGA	0.2 kcal/mol

Sequence	relative binding free energy
TGAAGCACGTGAGGAG	0.25 kcal/mol
ATATTCACGTGGGTAA	0.15 kcal/mol
TTCTTCACGTGTGACT	0.27 kcal/mol
GGCTACACGTGGGCGG	-0.09 kcal/mol
AGTAGCACGTGAGGCG	0.07 kcal/mol
GCTAGCACGTGTGAGT	0.16 kcal/mol
AGCCTCACGTGGGGGG	-0.06 kcal/mol
GGCATCACGTGGGGCG	0.03 kcal/mol
GACTACACGTGTTGTG	0.18 kcal/mol
TCGTGCACGTGGGGTC	-0.22 kcal/mol
GCTGTCACGTGTGTTA	0.11 kcal/mol
GTGTTCACGTGAGTCG	0.16 kcal/mol
TGCTCCACGTGGTTTG	0.13 kcal/mol
GATTACACGTGGTGCT	0.14 kcal/mol
TAGCTCACGTGGTGCT	0.09 kcal/mol
AGATGCACGTGAGGCG	0.05 kcal/mol
GTATGCACGTGGGTGC	-0.25 kcal/mol
TCTATCACGTGGTGTC	0.1 kcal/mol
TGATTCACGTGAGTGG	0.39 kcal/mol
TACTACACGTGTGGGA	0.14 kcal/mol
CGGTTCACGTGGTGGC	0.33 kcal/mol
GTTAACACGTGTATTT	0.09 kcal/mol
AGGATCACGTGCTTGG	0.1 kcal/mol
CATATCACGTGGGATG	0.11 kcal/mol
TTAGACACGTGAGATA	0.17 kcal/mol
TGAGTCACGTGGTTCG	-0.01 kcal/mol

Sequence	relative binding free energy
TTTGGCACGTGCGGGT	-0.12 kcal/mol
GTTGCCACGTGAGGTT	0.22 kcal/mol
CGGTTCACGTGAGGAT	0.32 kcal/mol
TAGAGCACGTGGTGGT	-0.15 kcal/mol
AGCGGCACGTGGAGGG	-0.1 kcal/mol
AGTAGCACGTGATAAT	0.05 kcal/mol
AGGGTCACGTGCACGG	0.05 kcal/mol
GGGTCCACGTGGGACG	-0.18 kcal/mol
AACGTCACGTGTTGAT	0.16 kcal/mol
AATGTCACGTGATGAT	0.13 kcal/mol
GTTGACACGTGGAAGA	0.19 kcal/mol
GGACTCACGTGGTTGT	0.27 kcal/mol
AGCGTCACGTGGTGGA	0.08 kcal/mol
GTTTCCACGTGTGGTA	0.22 kcal/mol
GGTTACACGTGGCAGA	0.09 kcal/mol
GTGATCACGTGTAGTT	0.09 kcal/mol
GGTGACACGTGACGGT	0.18 kcal/mol
TAACTCACGTGGAGGT	0.26 kcal/mol
TATTACACGTGTGAAT	0.09 kcal/mol
TTTTTCACGTGAATCA	0.47 kcal/mol
TTTTGCACGTGAAGAT	0.2 kcal/mol
TTATCCACGTGATATT	0.29 kcal/mol
GTTCGCACGTGACGGT	0.24 kcal/mol
TTTGACACGTGCTCGG	-0.02 kcal/mol
GGGTGCACGTGTATTG	0.13 kcal/mol
CTATGCACGTGAGTGG	0.14 kcal/mol

Sequence	relative binding free energy
CTTTGCACGTGAAGTG	0.29 kcal/mol
AAGGACACGTGCTGGG	-0.07 kcal/mol
GTGCTCACGTGCGAGG	0.27 kcal/mol
TGTTACACGTGGTGCT	-0.03 kcal/mol
AGGGACACGTGGTCAT	-0.12 kcal/mol
GTGGTCACGTGTTACG	0.24 kcal/mol
ATTTTCACGTGACAGA	0.38 kcal/mol
AAGCTCACGTGGTGAG	0.23 kcal/mol
TTGAACACGTGGTTCA	0.05 kcal/mol
AATTGCACGTGGTCTT	-0.08 kcal/mol
GTAGGCACGTGTTTGT	-0.01 kcal/mol
TATTTCACGTGAAGGC	0.24 kcal/mol
TGACTCACGTGGGGGA	0.04 kcal/mol
TTTGACACGTGTATGA	-0.07 kcal/mol
GATTGCACGTGAAGGA	0.33 kcal/mol
GTAAGCACGTGGGACG	-0.07 kcal/mol
CGGTTCACGTGATAGG	0.27 kcal/mol
ATATTCACGTGGACGG	0.3 kcal/mol
TGTGTCACGTGGACTG	0.09 kcal/mol
TACTTCACGTGCTGGG	0.3 kcal/mol
TTTAGCACGTGACGGG	0.06 kcal/mol
CGGGTCACGTGTAGAG	0.13 kcal/mol
GTAAGCACGTGATTTG	0.24 kcal/mol
ATGGTCACGTGGGGCT	-0.05 kcal/mol
TTTCACACGTGGGGGC	-0.08 kcal/mol
GGGGTCACGTGGAACG	0.28 kcal/mol

Sequence	relative binding free energy
TTTCCCACGTGTATGT	-0.05 kcal/mol
GGGTGCACGTGGATTG	0.06 kcal/mol
AGGTACACGTGGGGCG	-0.06 kcal/mol
TTCGTCACGTGGGCTA	0.07 kcal/mol
TTTGGCACGTGGGAAC	-0.22 kcal/mol
GTTGCCACGTGTTGTG	-0.03 kcal/mol
TTGTCCACGTGTGGGC	0.06 kcal/mol
CGTGTCACGTGGTGTT	0.05 kcal/mol
CGATACACGTGTTGTA	0.14 kcal/mol
GGGGTCACGTGGAAGC	0.3 kcal/mol
GGGATCACGTGGGATG	0.09 kcal/mol
ATTTTCACGTGAGACG	0.34 kcal/mol
TATGTCACGTGCGCGT	-0.23 kcal/mol
AGTGCCACGTGGTATA	-0.2 kcal/mol
CGGTTCACGTGGTTAA	0.15 kcal/mol
ACGGTCACGTGTAAGG	0.29 kcal/mol
GGAAACACGTGGAGAG	0.11 kcal/mol
CGTATCACGTGAATGT	0.3 kcal/mol
TGTTGCACGTGTGAGA	0 kcal/mol
CAATGCACGTGGGGGG	-0.2 kcal/mol
TGGGACACGTGCGTAA	-0.07 kcal/mol
ACGTGCACGTGCGGGT	-0.25 kcal/mol
AAGTACACGTGGGCGG	-0.1 kcal/mol
TACGCCACGTGTGGTG	-0.11 kcal/mol
TATGACACGTGGGAAA	0.06 kcal/mol
AAAGGCACGTGGCGGT	-0.33 kcal/mol

Sequence	relative binding free energy
TCGATCACGTGTGTAG	0.13 kcal/mol
AGGACCACGTGGGGTA	-0.22 kcal/mol
GGGTACACGTGAGGCT	0.33 kcal/mol
GCGGCCACGTGTTAGT	0.05 kcal/mol
ATTGACACGTGTGTGC	-0.02 kcal/mol
TAGGCCACGTGAGGTG	0.04 kcal/mol
GTGAACACGTGTGATA	0.08 kcal/mol
ATCGGCACGTGGTGCG	-0.31 kcal/mol
GATGTCACGTGTTGAT	0.24 kcal/mol
TTACACACGTGGGTTA	-0.17 kcal/mol
AGTGGCACGTGAAATA	0.01 kcal/mol
GTTTTCACGTGCGGGT	0.44 kcal/mol
GAGTACACGTGGGGTG	-0.05 kcal/mol
AACGTCACGTGTGGGG	0.16 kcal/mol
GAGGTCACGTGGGGGT	0.05 kcal/mol
CTAAGCACGTGTAGGG	-0.22 kcal/mol
GGAAACACGTGGGGAA	-0.07 kcal/mol
GCTTTCACGTGTTGGA	0.2 kcal/mol
TTGTGCACGTGTAAGC	0.15 kcal/mol
TGGTTCACGTGAGAAG	0.37 kcal/mol
TTTGTCACGTGATGTG	0.3 kcal/mol
GGGCACACGTGTGTGA	0.12 kcal/mol

Reference: the BET-seq Pho4 binding data (Le et al. 2018)
